Source: the supplement of paper PMC3334620
In all, about 33,000 sequences were measured (“E-score (-0.5 to 0.5)”: median about -0.013, highest 2% from about 0.3 on). Some of the results follow.

What follows are sequences tested against T1, Msn1 (UniProt P22148) (assay: PBM E-score (8-mer binding enrichment) (E-score (-0.5 to 0.5)); higher = stronger / more preferred TF binding; most listed sequences are background and not binding sites). Settings: protein concentration: 200 nM; construct: GST-full length.
T1 sequence: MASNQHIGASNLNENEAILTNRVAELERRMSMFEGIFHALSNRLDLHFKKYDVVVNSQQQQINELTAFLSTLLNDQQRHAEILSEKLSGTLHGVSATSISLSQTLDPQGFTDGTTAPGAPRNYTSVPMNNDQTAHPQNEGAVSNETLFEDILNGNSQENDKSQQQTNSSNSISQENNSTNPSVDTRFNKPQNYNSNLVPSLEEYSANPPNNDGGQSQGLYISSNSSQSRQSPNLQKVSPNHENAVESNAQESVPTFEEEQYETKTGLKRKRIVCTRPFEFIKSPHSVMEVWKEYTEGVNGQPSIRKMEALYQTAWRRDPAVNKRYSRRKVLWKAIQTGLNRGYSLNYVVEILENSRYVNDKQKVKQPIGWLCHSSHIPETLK
Outline: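 The E-score, a modified Wilcoxon-Mann-Whitney statistic, was computed by the Universal PBM Analysis Suite for every ungapped eight-base word pooled with its reverse complement. Scans behind it were normalised with masliner after bound GST-tagged yeast transcription factors were detected with fluorescent anti-GST. The proteins, at about 100-200 nM, had been applied to universal all-10-mer Agilent arrays made double-stranded by primer extension.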

| Sequence | PBM E-score |
| --- | --- |
| CGTTCTAA | 0.07 |
| ACATTCCA | 0.229 |
| TGCTTCAA | 0.0426 |
| GGCTGCAA | -0.0572 |
| ACCTGCCA | -0.19 |
| ATCCCAGA | -0.198 |
| CCACAGAG | -0.0203 |
| TCTATGAA | 0.124 |
| CCAAAACA | -0.0184 |
| AACCGGAC | 0.0714 |
| ACGGAAAA | 0.108 |
| CGCGAGAG | -0.204 |
| ATGGTCAC | 0.0754 |
| TGTGGTAA | 0.148 |
| AGTCACAT | -0.126 |
| CGTTAAGA | 0.0873 |
| CTCACAAC | 0.00456 |
| TAATCGGA | 0.255 |
| ATCCTCGA | -0.0696 |
| GAGATCCC | 0.0835 |
| ACCGGCCA | -0.121 |
| AGGCCGCC | -0.115 |
| GAGATAAA | 0.144 |
| ACCTCAGA | -0.147 |
| AATGGATC | 0.104 |

| Sequence | PBM E-score |
| --- | --- |
| ATGTAGCG | -0.0985 |
| AGGCAGTG | -0.101 |
| ACCTCTCG | -0.17 |
| ATAGAGGA | -0.141 |
| AGAAGAAC | 0.00403 |
| CGCATGAA | -0.0724 |
| AATGTATC | 0.24 |
| AGGCACAT | -0.0434 |
| CACACACA | -0.0778 |
| ATGGCAAA | 0.0293 |
| AACATGAG | -0.152 |
| CTACACGA | -0.0282 |
| AAACATCC | 0.145 |
| CTAACTAG | 0.0891 |
| CAGCAGAA | 0.112 |
| GCGTCGAA | 0.0295 |
| CCTGCGAA | 0.0103 |
| CCCATCCC | -0.238 |
| TCCCGTCA | 0.0424 |
| AATGTCTG | 0.436 |
| AATCGAGG | 0.0797 |
| CGCGATGA | 0.157 |
| CTCCACAG | -0.226 |
| AGCAGGGA | 0.0713 |
| AAAACCGA | 0.0393 |

| Sequence | PBM E-score |
| --- | --- |
| TCATGACA | 0.388 |
| GAACGACC | -0.145 |
| CCTGAAGA | -0.00375 |
| ATTAATCA | 0.00845 |
| ATGTACCC | 0.115 |
| ACAACCAG | 0.177 |
| CAATGTAA | 0.0987 |
| AATAGAGT | -0.17 |
| CAAGTGAG | -0.0348 |
| TAAAACGA | 0.0314 |
| CGGGAGAA | 0.0141 |
| AGGAGTTA | -0.0752 |
| TACGGGAA | -0.15 |
| ACCACCCG | -0.272 |
| AACGTATG | -0.0294 |
| CAAGAGGG | -0.207 |
| ATGGATGA | -0.011 |
| CCTCATGA | -0.0741 |
| TCACATCA | -0.0539 |
| ACCTAGTC | -0.116 |
| AGGGCTAT | -0.375 |
| ATCCGTTG | 0.0973 |
| TACACGAA | 0.224 |
| GACCACCC | -0.302 |
| CCGGAGCC | -0.136 |

| Sequence | PBM E-score |
| --- | --- |
| GCCTGGCC | -0.105 |
| ATACGATA | 0.112 |
| ACCTTGAA | -0.0438 |
| CCTATCCA | -0.133 |
| GACTATGC | 0.071 |
| ACGTAAGT | -0.066 |
| AAGCCTTG | 0.0423 |
| ACGAACTG | -0.0517 |
| AAATTACG | -0.0272 |
| AGGGATGC | -0.182 |
| ACTATGAC | 0.0642 |
| ATTTGTCG | 0.451 |
| ATAGGGTG | -0.217 |
| GTTGGATA | 0.0207 |
| TCATATCA | 0.0312 |
| CCATCCAC | -0.119 |
| CCGCAACG | -0.0463 |
| ATTATCAA | 0.2 |
| AACTGATC | -0.156 |
| ACTCTTGG | -0.0324 |
| CTCCGACA | 0.174 |
| CCCATCGG | -0.0334 |
| AGGCTCTA | -0.139 |
| ATCGCTCC | -0.163 |
| TCAAGAGA | -0.123 |

| Sequence | PBM E-score |
| --- | --- |
| CATAAGGA | 0.159 |
| AGTCATCC | 0.0357 |
| GCGCGTAC | 0.0398 |
| CAGCCCGG | -0.168 |
| CAGGATCG | -0.0602 |
| CCCGGAAA | 0.0372 |
| ACTAGCGC | 0.00695 |
| AAAGAGAG | -0.2 |
| AATGGAAG | 0.0312 |
| CTGCCGAA | -0.0244 |
| ACTGGCGA | -0.25 |
| CACTACCC | -0.148 |
| ACGACATC | 0.163 |
| ACACCGAG | 0.075 |
| CCTGGAAG | -0.314 |
| CAATTTCG | 0.0208 |
| ACTAATCA | 0.152 |
| AAGTTCCG | 0.0122 |
| GTGCAGGA | -0.202 |
| AAACGGGA | 0.144 |
| AAAAATCG | 0.0175 |
| AAGCTCCT | -0.176 |
| ACTTCTTA | -0.0406 |
| TACTGAGA | 0.0695 |
| GCCCCGAA | 0.0567 |

| Sequence | PBM E-score |
| --- | --- |
| CAGCTCTA | -0.137 |
| CTATGATA | -0.0408 |
| GCATCCCA | -0.305 |
| GGTTGGTA | 0.0725 |
| AAAGCAGG | 0.00881 |
| TGCCGGCA | 0.194 |
| CATGGGGG | -0.32 |
| CAGCGCGA | -0.087 |
| AGCATAGC | -0.198 |
| GGTCTCTA | -0.0404 |
| CGCTACCG | 0.00385 |
| AGCGATCA | -0.0507 |
| GGAGTAAC | -0.197 |
| AACGACCT | -0.043 |
| CATTGCGG | 0.0597 |
| CTGTGTGA | -0.19 |
| GCGTGTGA | -0.0575 |
| TTCATGAA | 0.15 |
| ACCCGTAG | -0.3 |
| ACAACCTC | -0.0594 |
| CGCTTATC | -0.115 |
| ATCGCAAG | 0.0359 |
| CAGGGGCG | -0.409 |
| CCAGTAAC | -0.162 |
| AACGCCTC | -0.293 |

| Sequence | PBM E-score |
| --- | --- |
| CTAAAGTA | -0.148 |
| GGTGTACA | 0.0363 |
| AGCCTGCA | -0.0191 |
| CTATATAG | 0.0422 |
| ATTGCCGA | 0.0596 |
| AGAATGGA | 0.098 |
| CTTCCCCA | -0.237 |
| CCAATTTA | 0.209 |
| AGGAGGCG | -0.254 |
| GAGGCACA | -0.0819 |
| CGCGGTTC | 0.186 |
| TAAGCGTA | -0.0894 |
| TACCCTCA | -0.109 |
| GCCCAGTA | -0.217 |
| AGGGGCTC | -0.331 |
| CCAGCGCA | -0.0348 |
| GTTACAAA | 0.158 |
| AAGGTACC | 0.0421 |
| ACTTGTAC | 0.257 |
| CCTCTTCC | -0.321 |
| ATGGTAGC | -0.1 |
| GACGAACC | 0.0173 |
